Results published in the supplement of paper PMC4604168 (melanoma cell lines).
The other results are listed elsewhere or left out. Most values come without repeats; read them as rough.

Legend:
Test in all cases: cell count relative to DMSO control; melanoma cells; higher = more viable cells
Conditions in all cases: library dose: low library concentration; 72 h
[1] = system: COLO792
[2] = system: COLO800
[3] = system: COLO829
[4] = system: G361
[5] = system: IPC-298
[6] = system: IST-MEL1
[7] = system: LB2518-MEL
[8] = system: LOXIMVI
[9] = system: MEL-HO
[10] = system: MZ2-MEL
[11] = system: MeWo
[12] = system: RPMI7951
[13] = system: RVH-421
[14] = system: SkMel28
[15] = system: SkMel2
[16] = system: SkMel30
[17] = system: SkMel5
[18] = system: UACC257
[19] = system: UACC62
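Also: cell number obtained by counting DAPI-stained nuclei in high-throughput microscope images with image analysis software, screen run in 1,536-well plates.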

SMILES	cell count [1]	cell count [2]	cell count [3]	cell count [4]	cell count [5]	cell count [6]	cell count [7]	cell count [8]	cell count [9]	cell count [10]	cell count [11]	cell count [12]	cell count [13]	cell count [14]	cell count [15]	cell count [16]	cell count [17]	cell count [18]	cell count [19]
N#CC[C@H](C1CCCC1)n1cc(-c2ncnc3[nH]ccc23)cn1 [ruxolitinib] + C/C(O)=C(\C#N)C(=O)Nc1cc(Br)ccc1Br [LFM-A13] (first compound 1 µM, partner dose 2 µM)	99.3%	109%	118%	91%	104%	92.6%	136%	96.7%	93.3%	97%	93.6%	95.9%	159%	101%	105%	92.1%	109%	99%	97.7%
N#CC[C@H](C1CCCC1)n1cc(-c2ncnc3[nH]ccc23)cn1 [ruxolitinib] + O=C(Oc1ccc([N+](=O)[O-])cc1)N1CCC(C(O)(c2ccc3c(c2)OCO3)c2ccc3c(c2)OCO3)CC1 [JZL184] (first compound 1 µM, partner dose 1 µM)	97.8%	172%	95.2%	108%	96.4%	97.9%	140%	123%	99.6%	91%	93.8%	105%	95.1%	102%	111%	98.1%	87.1%	88.7%	112%
Cn1cnc2c(F)c(Nc3ccc(Br)cc3Cl)c(C(=O)NOCCO)cc21 [selumetinib] + Cc1cc(SCc2sc(-c3ccc(C(F)(F)F)c(F)c3)nc2C)ccc1OCC(=O)O [GW0742] (first compound 0.015 µM, partner dose 2 µM)	97.8%	153%	168%	91.7%	74.3%	109%	58.7%	96.1%	104%	92%	96.7%	113%	90.9%	78.1%	87.5%	66.1%	108%	103%	69.7%
CC(=O)c1c(C)c2cnc(Nc3ccc(N4CCNCC4)cn3)nc2n(C2CCCC2)c1=O [palbociclib] + Cc1cc(SCc2sc(-c3ccc(C(F)(F)F)c(F)c3)nc2C)ccc1OCC(=O)O [GW0742] (first compound 0.04 µM, partner dose 2 µM)	81.1%	111%	80.8%	69%	88.8%	77.5%	73.8%	79.9%	98.7%	88.1%	71%	77.1%	118%	75.2%	89.1%	83.9%	77.9%	77.8%	82.6%
CCCCCCCCCCCCCCCCCCOP(=O)([O-])OC1CC[N+](C)(C)CC1 [Perifosine] + O=C(Oc1ccc([N+](=O)[O-])cc1)N1CCC(C(O)(c2ccc3c(c2)OCO3)c2ccc3c(c2)OCO3)CC1 [JZL184] (first compound 0.4 µM, partner dose 1 µM)	100%	130%	115%	99.1%	98.3%	98.6%	123%	124%	103%	102%	96.9%	86.9%	103%	82.3%	91.8%	86.8%	101%	108%	91.2%
CNC(=O)c1cc(Oc2ccc(NC(=O)Nc3ccc(Cl)c(C(F)(F)F)c3)cc2)ccn1 [sorafenib] + C/C(O)=C(\C#N)C(=O)Nc1cc(Br)ccc1Br [LFM-A13] (first compound 0.4 µM, partner dose 2 µM)	118%	77%	104%	107%	91.9%	103%	112%	92.9%	101%	91.1%	109%	86.5%	91.4%	79.2%	98.9%	101%	98.3%	95.3%	92.3%
COc1ccc(C2=N[C@@H](c3ccc(Cl)cc3)[C@@H](c3ccc(Cl)cc3)N2C(=O)N2CCNC(=O)C2)c(OC(C)C)c1 [Nutlin-3] + C/C(O)=C(\C#N)C(=O)Nc1cc(Br)ccc1Br [LFM-A13] (first compound 0.1 µM, partner dose 2 µM)	95.1%	73.8%	99.5%	91.9%	101%	112%	81%	87.4%	94.1%	102%	94.2%	100%	96.9%	82.9%	97.9%	82.9%	85.3%	74.8%	73.1%
CNC(=O)c1cc(Oc2ccc(NC(=O)Nc3ccc(Cl)c(C(F)(F)F)c3)cc2)ccn1 [sorafenib] + Cc1cc(SCc2sc(-c3ccc(C(F)(F)F)c(F)c3)nc2C)ccc1OCC(=O)O [GW0742] (first compound 0.4 µM, partner dose 2 µM)	107%	114%	95.1%	124%	94.8%	103%	112%	85%	113%	93.6%	96.4%	96.9%	119%	90.3%	114%	89.2%	110%	103%	95.7%
CS(=O)(=O)CCNCc1ccc(-c2ccc3ncnc(Nc4ccc(OCc5cccc(F)c5)c(Cl)c4)c3c2)o1 [lapatinib] + C/C(O)=C(\C#N)C(=O)Nc1cc(Br)ccc1Br [LFM-A13] (first compound 0.8 µM, partner dose 2 µM)	65.2%	75.7%	116%	96.7%	100%	101%	104%	115%	85.9%	96.2%	97.3%	86.4%	84.6%	72.4%	98%	100%	83.1%	87.4%	93.3%
O=C(O)[C@@H]1[O][Sb](=[O])([O][Sb]2(=[O])[O][C@H]([C@H](O)CO)[C@H](O)[C@H](C(=O)O)[O]2)[O][C@H]([C@H](O)CO)[C@@H]1O (some centres not stated) [stibogluconate] + O=C(Oc1ccc([N+](=O)[O-])cc1)N1CCC(C(O)(c2ccc3c(c2)OCO3)c2ccc3c(c2)OCO3)CC1 [JZL184] (first compound 2 µM, partner dose 1 µM)	96.8%	87.9%	112%	113%	96.2%	96.7%	93.6%	109%	90.5%	94.7%	101%	108%	95.3%	105%	102%	90.4%	92.5%	83.6%	88.4%
C=CCNC1=C2C[C@@H](C)C[C@H](OC)[C@H](O)[C@@H](C)/C=C(\C)[C@H](OC(N)=O)[C@@H](OC)/C=C\C=C(/C)C(=O)NC(=CC1=O)C2=O [Tanespimycin] + Cc1cc(SCc2sc(-c3ccc(C(F)(F)F)c(F)c3)nc2C)ccc1OCC(=O)O [GW0742] (first compound 0.002 µM, partner dose 2 µM)	93.6%	137%	121%	90.6%	102%	101%	100%	81.8%	108%	106%	96.6%	84.7%	92.3%	90.8%	110%	91.2%	95.6%	114%	89.7%
C=C(c1ccc(C(=O)O)cc1)c1cc2c(cc1C)C(C)(C)CCC2(C)C [Bexarotene] + C/C(O)=C(\C#N)C(=O)Nc1cc(Br)ccc1Br [LFM-A13] (first compound 2 µM, partner dose 2 µM)	116%	122%	105%	97.2%	105%	105%	122%	61%	113%	100%	82%	82.4%	105%	63.7%	91.8%	92.8%	89.5%	90%	90.5%
CC1(C)CCC(c2ccc(Cl)cc2)=C(CN2CCN(c3ccc(C(=O)NS(=O)(=O)c4ccc(N[C@H](CCN5CCOCC5)CSc5ccccc5)c(S(=O)(=O)C(F)(F)F)c4)cc3)CC2)C1 + C/C(O)=C(\C#N)C(=O)Nc1cc(Br)ccc1Br [LFM-A13] (first compound 0.4 µM, partner dose 2 µM)	54.4%	80.2%	91.8%	88.3%	97.4%	73.3%	87.9%	77.7%	61%	94.3%	76.3%	45.4%	68.9%	77.4%	85.6%	54.1%	51.3%	58.7%	63.1%
